Data from PubChem BioAssay AID493208 (National Center for Advancing Translational Sciences (NCATS), 2011).
Out of some 44,000 compounds screened, about 340 (0.77%) were called active. Roughly 5% stayed inconclusive and do not appear here. Calls follow the shape of the dose curve; as a rule, active = well fitted inhibition curve with a large enough effect; inconclusive = small, poorly fitted or top-dose-only effect; inactive = flat fitted curve, though single readings scatter. The list shows a part of the results.

assay: Acumen qHTS Assay for Inhibitors of the mTORC1 Signaling Pathway in MEF (Tsc2-/-, p53-/-) Cells: Sytravon; conditions: phospho-rpS6 immunofluorescence/PI, 24 h; series mostly up to 38.3 µM; activity change, negative = inhibition: at the top concentration;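 also: plate controls were DMSO for no effect and rapamycin for full effect; nearly all actives have a fitted effect of over 50% in size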
How it was run: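 Read-out: phospho-S6 Alexa-488 intensity over PI intensity per well, scored as % active cells using thresholds from rapamycin (7.5 nM) and DMSO controls. Tsc2-/-, p53-/- MEFs exposed to compound for 24 h; PI cell count recorded as viability.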

Activity change, negative = inhibition, inactive:
CCOc1ccc(C(=O)NCc2nnnn2-c2ccc(C)c(C)c2)cc1OCC 0.0223%
Cc1cc(C)c(NC(=O)CCN2C(=O)c3ccccc3Sc3ncccc32)c(C)c1 3.31%
Cc1ccc(-n2c(=O)c3ccc(C(=O)NCc4ccccc4Cl)cc3n(CC(=O)Nc3cccc(Cl)c3)c2=O)cc1 1.17%
Cc1nc2cc(C(=O)NCCC3=CCCCC3)ccc2n1-c1ccc(Br)cc1 -0.431%
CCc1nn(CC(=O)NCC(C)c2ccccc2)c(=O)c2cc3occc3n12 (stereo not given) 0.987%
COC(=O)c1cc2c(cc1NC(=O)c1cnn(-c3ccccc3)c1-n1cccc1)OCO2 -0.0048%
CSc1nc(Nc2ccc(C)cc2C)cc(-c2ccccc2)n1 -2.8%
CCOC(=O)CNC(=O)CSc1cn(CC(=O)N2CCCCCC2)c2ccccc12 0.889%
CN(Cc1ccccc1)C(=O)C1CCN(S(=O)(=O)c2ccc3c(c2)oc(=O)n3C)CC1 -5.34%
Cc1cccc(C(=O)Nc2nnc(S(=O)(=O)N(C)Cc3ccc(Cl)cc3)s2)c1 -5.06%
O=C1COc2ccc(-c3cc(-c4ccc(Cl)cc4)c4c(n3)-c3ccccc3OC4)cc2N1 19.3%
Cc1cccc(Cn2c(=O)n(CC3CCC(C(=O)NC(C)C)CC3)c(=O)c3sccc32)c1 (stereo not given) 0%
COc1ccc(NC(=O)CN2C(=O)C(C)(C)c3ccccc32)cc1Cl -3.34%
CSc1ccc(CCNC(=O)C2=C(C)C(=O)OC23CCCCC3)cc1 -7.28%
COc1cc(CNC(=O)c2sc3ncccc3c2-n2cccc2)cc(OC)c1OC -12.7%
COc1cccc(C2CC(=O)Nc3cc(OC)c(OC)c(OC)c32)c1OC(C)C (stereo not given) -7.39%
Cc1nn(-c2ccccc2)c(OC(=O)c2cccc(Br)c2)c1S(=O)(=O)c1ccccc1 1.31%
N#Cc1nc(-c2ccc(COc3ccccc3)o2)oc1NCc1cccnc1 -4.22%
COC(=O)c1ccc(OCC2c3cc(OC)c(OC)cc3CCN2C(=O)c2ccccc2C)cc1 (stereo not given) 10.1%
Cc1ccc(-c2nnc(Nc3ccc(Br)cc3)c3ccccc23)cc1S(=O)(=O)NCC1CCCO1 (stereo not given) 2.4%
Cc1nc(N2CCCC2)c2c(C(=O)N3CCN(c4ccc(F)cc4)CC3)c(C)oc2n1 -3.24%
CCc1cccc(CC)c1NC(=O)c1c(C)oc2ccc(O)c(CN3CCN(C)CC3)c12 6.84%
Cc1cccc(N2CCN(C(=O)Cn3ncc4c3-c3cc(C)ccc3OC4)CC2C)c1 (stereo not given) 1.43%
Cc1cc(C)cc(NC(=O)c2cc(C)nc3c2c(C)nn3-c2ccccc2)c1 -23.5%
COc1cccc(-c2nc(SCC(=O)NCC3CCCO3)c(-c3ccc(C)cc3)[nH]2)c1 (stereo not given) -30.8%
COc1ccc(NC(=O)Cn2c(=O)n(CCC(C)C)c(=O)c3cccnc32)cc1Cl 0.997%
CCOc1ccc(C2CC(=O)NC(NC(=O)c3ccc(C)cc3)=N2)cc1 (stereo not given) 3.61%
Cc1ccc(OCC(=O)N(Cc2ccc(Cl)cc2)Cc2ccco2)cc1C 2.99%
CC(C)NC(=O)C1CCC(Cn2c(=O)c3sccc3n(CC(=O)N3CCCC3)c2=O)CC1 (stereo not given) -8.64%
COc1ccc(NC(=O)c2ccc3c(=O)n4nc(Nc5ccccc5C)sc4nc3c2)cc1Cl 0.881%
Cc1ccccc1Nc1cc(C(=O)NC2CCCC2)c2ccccc2n1 -0.733%
CCCOc1ccc(NC(=O)CC2C(=O)N(c3ccccc3)C(=O)N2Cc2ccc(F)cc2)cc1 (stereo not given) 0%
Cc1cccc(Cn2cc(/C=C(/C#N)C(=O)Nc3cccc(Cl)c3)c3ccccc32)c1 2.87%
CCN(C(=O)c1cc2c(=O)oc3ccccc3c2s1)c1ccc(C)c(C)c1 -5.51%
Cc1ccc(Cn2c(C(=O)O)c(CNC3CCCCC3)c3ccc(C)cc32)cc1 6.36%
Cc1ccc(C(=O)NCC(c2ccc3c(c2)OCO3)N2CCN(c3ccc(F)cc3)CC2)cc1 (stereo not given) 5.44%
CCOc1ccccc1NC(=O)Cn1c(=O)n(Cc2nc(C)no2)c(=O)c2ccccc21 -0.917%
Cc1ccccc1C(=O)Nc1ccccc1OCc1cc(=O)n2ccccc2n1 2.93%
CCN(CC)c1nc2c(S(=O)(=O)c3ccccc3)nnn2c2ccc(Cl)cc12 -2.93%
CCOc1ccccc1CNC(=O)c1nc(-c2ccc(Cl)cc2)n2c1CCCCC2 -1.67%
Cc1cccc(CS(=O)(=O)Cc2ccc(C(=O)NCc3ccccc3)o2)c1 -6.09%
CCOc1ccc(CCNC(=O)c2c(C)oc3ncn(CC(C)C)c(=O)c23)cc1 4.8%
Cc1cccc(-c2nc(S(=O)(=O)c3ccc(Cl)cc3)c(N3CCCCCC3)o2)c1 -17.9%
Clc1ccccc1CNc1ncnc2c1nc1n2CCCC1 1.03%
COC(=O)c1c(NC(=O)COc2ccc(C)cc2Br)sc2c1CCCC2 -0.738%
Cc1cccc(NC(=O)C2CCCN(S(=O)(=O)c3ccc4c(c3)oc(=O)n4C)C2)c1C (stereo not given) 1.77%
Cc1ccc(CNC(=O)CN(C)S(=O)(=O)c2ccc3c(c2)c(=O)n(C)c(=O)n3C)cc1 -1.53%
CCOc1ccc(N(C)S(=O)(=O)c2cc(-c3cc(C)no3)ccc2OC)cc1 -1.24%
COc1cccc(N2C(=O)C(CC(=O)Nc3ccccc3)N(CCc3sccc3C)C2=O)c1 (stereo not given) 1.91%
CCc1ccccc1NC(=O)CN1C(=O)C2CCCN2c2ccc(S(=O)(=O)N(CC)CC)cc21 (stereo not given) -5.05%
Cc1c(CNC2CCC(C)CC2)c(C(=O)O)c(C)n1Cc1ccc(Cl)cc1 (stereo not given) -3.79%
CCOC(=O)C(CC)Sc1ncnc2c1c(-c1ccccc1)cn2-c1ccc(OC)cc1 (stereo not given) 1.35%
O=C(CSc1nnc(-c2ccccc2)c(-c2ccccc2)n1)NCCc1ccccc1 2.27%
CCn1c(=O)c2cc(C(=O)NCc3ccc(F)cc3Cl)sc2c2ccccc21 -4.73%
Cc1ccc(C)c(N(C)C(=O)c2cc3c(s2)-c2ccccc2OC3)c1 -3.05%
Cc1cc(=O)n(CC(=O)N2CCCc3ccccc32)c2c1c(C)nn2-c1cccc(F)c1 0.463%
Cc1cc(C)c(OCC(=O)N(Cc2ccc(N(C)C)cc2)CC2CCCO2)c(C)c1 (stereo not given) 0.189%
CCc1cccc(C)c1NC(=O)CCCn1c(C)c2cnn(-c3ccccc3)c(=O)c2c1C -0.239%
CCCN(C(=O)Cc1nc(-c2ccc(OC)cc2)no1)c1ccccc1C -7.89%
CCC(C)NC(=O)Cn1c(=O)n(CCCCCC(=O)Nc2ccccc2)c(=O)c2sccc21 (stereo not given) -6.65%
CCCCOC(=O)c1ccc(OC(=O)c2sc3ncn(Cc4cccc(F)c4)c(=O)c3c2C)cc1 2.45%
CCOC(=O)c1[nH]c(C)c(CCC(=O)Nc2ccccc2OCC)c1C -20.6%
CN1C(=O)CC(C(=O)Nc2ccc(C(=O)O)cc2)SC1=Nc1ccc(Cl)cc1 (stereo not given) -1.11%
Cn1c(=O)c2c(nc(NCCCCO)n2Cc2ccccc2Cl)n(C)c1=O -1.25%
COc1ccc2c(C)c(CCC(=O)NCCc3ccc(OC)c(OC)c3)c(=O)oc2c1 4.6%
COc1ccc(C(=O)Nc2nnc(SCc3cc(=O)c4cccc(F)c4[nH]3)s2)cc1 7.93%
CCN(CC)CCCNC(=O)Cn1ncc2c3ccccc3n(Cc3ccccc3)c2c1=O 1.34%
CCN(CC)c1ccc(NS(=O)(=O)c2cc(-c3onc(C)c3C)ccc2OC)c(C)c1 3.73%
Cc1ccc2c(=O)cc(C(=O)Nc3ccc(S(=O)(=O)N4CCCCC4C)cc3)oc2c1C (stereo not given) 2.08%
CC(=O)Nc1cc(C(=O)NCc2ccc(F)cc2)ccc1S(=O)(=O)c1ccc(C)cc1 3.75%
COc1cccc(-c2nnc(SCC(=O)N(C)c3ccccc3)o2)c1 -12.8%
CCOC(=O)c1ccc(NC(=O)CC2C(=O)N(c3cccc(OC)c3)C(=O)N2Cc2cccnc2)cc1 (stereo not given) -9.84%
CC(=O)c1ccc(NC(=O)C(C)n2nc(-c3ccccc3)ccc2=O)cc1 (stereo not given) -0.787%
CCn1c2ccccc2c2cc(CN3CCN(Cc4ccc(Cl)cc4)CC3)ccc21 -27.2%
Cc1cccc(C)c1NC(=O)Cn1cc(C(=O)c2ccco2)c2ccccc21 1.65%
O=C(Cn1ncc2c3ccccc3n(Cc3cccc(Cl)c3)c2c1=O)NCCCc1ccccc1 -0.685%
COc1ccc(-c2c(C)nn3c(-c4ccccc4)cc(C)nc23)cc1OC -2.03%
Cc1cc(C)n(C(C)CC(=O)Nc2cccc(C#N)c2)n1 (stereo not given) 2.19%
CCc1nc(Nc2ccc(F)c(Cl)c2)c2c3c(sc2n1)CCCC3 -5.83%
CCOc1ccc(-c2nn(-c3ccc(F)cc3)c3c2cnc2ccc(F)cc23)cc1 2.98%
Cc1cc(O)c(C(c2ccccc2)N2CCN(c3ccccc3)CC2)c(=O)n1Cc1ccco1 (stereo not given) 3.68%
COc1ccc(N2CCN(C(=O)C3CCN(S(=O)(=O)c4cccc5nonc45)CC3)CC2)cc1 -0.237%
CCN1CCN(CCCNC(=O)CS(=O)(=O)Cc2nc(-c3ccccc3C)oc2C)CC1 -8.69%
Cc1cc(C)cc(NC(=O)c2ccc3oc(=O)c(S(=O)(=O)c4ccc(F)cc4)cc3c2)c1 -9.25%
COc1ccc(NC(=O)Cn2c(=O)c3cccn3c3ccccc32)cc1Cl -1.38%
O=C(Nc1ccc(-c2nc3ccccc3o2)c(O)c1)c1ccccc1 -28.6%
Cc1ccc(-c2nnc(Nc3ccc(C(N)=O)cc3)c3ccccc23)cc1S(N)(=O)=O 3.01%
COc1cccc2sc(NC(=O)c3ccc(S(=O)(=O)N4CCC(C)CC4)cc3)nc12 -2.71%
CCOC(=O)c1noc2ncnc(Nc3cc(Cl)c(OC)cc3OC)c12 4.12%
COc1ccc(C)cc1NC(=O)Nc1cc(C(=O)NCc2ccc(C)cc2)ccc1N1CCCC1 8.05%
COc1ccc(-c2nc3sc(CCNC(=O)Cc4ccc(F)cc4)c(C)n3n2)cc1 0.384%
Cc1sc(-c2cc3ccccc3oc2=O)nc1-c1ccc(Cl)c(Cl)c1 0.495%
CCOc1ccc(CNCc2c(C(=O)O)c(C)n(Cc3ccc(C)cc3)c2C)cc1 -0.419%
Cc1nnc(N2CCCC(C(=O)NCCN(C)C)C2)c2nn(-c3ccccc3)c(C)c12 (stereo not given) 0%
CCOc1ccccc1OCCCCn1c(-c2ccc(Cl)cc2)nc2ccccc2c1=O 5.63%
